Laboratory results taken from patent US11160803B2, “Phthalazinone derivatives” (KUDOS PHARMACEUTICALS LIMITED, priority 2003, dated 2021).

What follows are compounds tested against Mammalian PARP, isolated from Hela cell nuclear extract (Homo sapiens, UniProt P09874) (assay: PARP inhibition assay (FlashPlate, 3H-NAD incorporation), IC50). Conditions: PARP from Hela cell nuclear extract, NAD 5 μM, 30° C.
Type: biochemical
Experimental: In order to assess the inhibitory action of the compounds, the following assay was used to determine IC50 values (Dillon, et al., JBS., 8(3), 347-352 (2003)).
The total assay volume per well was 40 μl.
After 10 minutes incubation at 30° C. the reactions were initiated by the addition of a 10 μl reaction mixture, containing NAD (5 μM), ^3H-NAD and 30 mer double stranded DNA-oligos. Designated positive and negative reaction wells were done in combination with compound wells (unknowns) in order to calculate % enzyme activities. The plates were then shaken for 2 minutes and incubated at 30° C. for 45 minutes.
Following the incubation, the reactions were quenched by the addition of 50 μl 30% acetic acid to each well. The plates were then shaken for 1 hour at room temperature.
The plates were transferred to a TopCount NXT (TRADE MARK) (Packard, UK) for scintillation counting. Values recorded are counts per minute (cpm) following a 30 second counting of each well.
The % enzyme activity for each compound is then calculated using the following equation: […]
Such IC50 values are used as comparative values to identify increased compound potencies.

SMILES | IC50 [nM]
CN(C)c1ccc(NC(=S)N2CCCN(C(=O)c3cccc(Cc4n[nH]c(=O)c5ccccc45)c3)CC2)cc1 [compound 340] | < 10
O=C(c1cccc(Cc2n[nH]c(=O)c3ccccc23)c1)N1CCCN(C(=S)Nc2ccccc2)CC1 [compound 341] | < 10
COC(=O)c1cccc(NC(=S)N2CCCN(C(=O)c3cccc(Cc4n[nH]c(=O)c5ccccc45)c3)CC2)c1 [compound 342] | < 10
COc1ccc(NC(=S)N2CCCN(C(=O)c3cccc(Cc4n[nH]c(=O)c5ccccc45)c3)CC2)cc1 [compound 343] | < 10
COC(=O)c1ccccc1NC(=S)N1CCCN(C(=O)c2cccc(Cc3n[nH]c(=O)c4ccccc34)c2)CC1 [compound 344] | < 10
O=C(c1cccc(Cc2n[nH]c(=O)c3ccccc23)c1)N1CCCN(C(=S)Nc2cccc(C(F)(F)F)c2)CC1 [compound 345] | < 10
O=C(c1cccc(Cc2n[nH]c(=O)c3ccccc23)c1)N1CCCN(C(=S)Nc2ccccc2F)CC1 [compound 346] | < 10
COc1ccccc1NC(=S)N1CCCN(C(=O)c2cccc(Cc3n[nH]c(=O)c4ccccc34)c2)CC1 [compound 347] | < 10
Cc1ccc(NC(=S)N2CCCN(C(=O)c3cccc(Cc4n[nH]c(=O)c5ccccc45)c3)CC2)cc1 [compound 348] | < 10
Cc1ccccc1NC(=S)N1CCCN(C(=O)c2cccc(Cc3n[nH]c(=O)c4ccccc34)c2)CC1 [compound 349] | < 10
O=C(c1cccc(Cc2n[nH]c(=O)c3ccccc23)c1)N1CCN(C(=O)N2CCOCC2)CC1 [compound 350] | < 10
Cc1cccc(N2CCN(C(=O)C3CCN(C(=O)c4cccc(Cc5n[nH]c(=O)c6ccccc56)c4)CC3)CC2)c1C [compound 356] | < 10
O=C(c1cccc(Cc2n[nH]c(=O)c3ccccc23)c1)N1CCC(C(=O)N2CCN(c3ccc(F)cc3)CC2)CC1 [compound 357] | < 10
